The list shows a part of the results. Repeats are few or missing, and single values can be far off.
What was measured:
Test in all cases: cell count relative to DMSO control; melanoma cells; higher = more viable cells
Settings in all cases: library dose: standard library concentration; 72 h
G361 = tested on: G361
IPC-298 = tested on: IPC-298
IST-MEL1 = tested on: IST-MEL1
LB2518-MEL = tested on: LB2518-MEL
LOXIMVI = tested on: LOXIMVI
MEL-HO = tested on: MEL-HO
MZ2-MEL = tested on: MZ2-MEL
MeWo = tested on: MeWo
RPMI7951 = tested on: RPMI7951
RVH-421 = tested on: RVH-421
SkMel28 = tested on: SkMel28
SkMel2 = tested on: SkMel2
SkMel30 = tested on: SkMel30
SkMel5 = tested on: SkMel5
UACC257 = tested on: UACC257
UACC62 = tested on: UACC62
WM115 = tested on: WM115
WM1716 = tested on: WM1716
WM1745 = tested on: WM1745
WM3526 = tested on: WM3526
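Also: cells treated in 1,536-well plates, then fixed and DAPI-stained, with nuclei counted from automated high-throughput microscope images.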

SMILES	cell count (G361) [%]	cell count (IPC-298) [%]	cell count (IST-MEL1) [%]	cell count (LB2518-MEL) [%]	cell count (LOXIMVI) [%]	cell count (MEL-HO) [%]	cell count (MZ2-MEL) [%]	cell count (MeWo) [%]	cell count (RPMI7951) [%]	cell count (RVH-421) [%]	cell count (SkMel28) [%]	cell count (SkMel2) [%]	cell count (SkMel30) [%]	cell count (SkMel5) [%]	cell count (UACC257) [%]	cell count (UACC62) [%]	cell count (WM115) [%]	cell count (WM1716) [%]	cell count (WM1745) [%]	cell count (WM3526) [%]
C[C@]1(O)C[C@@H](c2nc(-c3ccc4ccc(-c5ccccc5)nc4c3)c3c(N)nccn32)C1 + N.N.[Cl][Pt][Cl] [cisplatin] (first compound 2 µM, partner dose 8 µM)	89	98	104	104	74.2	101	107	94.2	70.6	107	77.2	91.6	85.7	106	83	71.5	99.9	125	58.9	82.8
Cc1cn(-c2cc(NC(=O)c3ccc(C)c(Nc4nccc(-c5cccnc5)n4)c3)cc(C(F)(F)F)c2)cn1 [nilotinib] + C[As](C)SC[C@H](NC(=O)CC[C@H](N)C(=O)O)C(=O)NCC(=O)O [Darinaparsin] (first compound 1 µM, partner dose 2 µM)	67.7	90.2	76.8	79.4	118	81.7	79	80	91.3	50.8	87.8	89.3	87.6	63.9	88.6	70.8	79.8	78.2	75.9	69
N#Cc1c(O)c2c(-c3ccc(-c4ccccc4O)cc3)csc2[nH]c1=O + Cc1cc(SCc2sc(-c3ccc(C(F)(F)F)c(F)c3)nc2C)ccc1OCC(=O)O [GW0742] (first compound 10 µM, partner dose 10 µM)	97	104	100	82.7	110	94.5	80.3	80.7	80	91.2	79.2	94.4	95.1	92.7	92.3	89	79.3	98	80.8	82.3
C/C(O)=C(\C#N)C(=O)Nc1cc(Br)ccc1Br + Oc1nc(-c2ccc(C(F)(F)F)cc2)nc2c1CSCC2 [XAV939] (first compound 10 µM, partner dose 10 µM)	101	98.7	97.4	113	301	88.4	85.5	111	91.7	324	97.7	107	83.8	119	87.4	101	118	86.7	94.7	133
Cn1sc(=O)n(Cc2ccccc2)c1=O + C[As](C)SC[C@H](NC(=O)CC[C@H](N)C(=O)O)C(=O)NCC(=O)O [Darinaparsin] (first compound 2 µM, partner dose 2 µM)	110	90.4	114	83.2	116	105	116	84.7	98.6	82.9	105	100	86.3	96.4	102	94.1	135	89.1	96.2	97.6
O=C(Nc1cccc(Cl)c1)Nc1ncc(CCNc2ncnc3ccsc23)s1 + Cc1cc(SCc2sc(-c3ccc(C(F)(F)F)c(F)c3)nc2C)ccc1OCC(=O)O [GW0742] (first compound 0.004 µM, partner dose 10 µM)	70.1	61.7	62.3	70.7	84.1	65.6	44.9	69.8	47	76.9	32.3	80.1	98.6	94.9	73.4	87	53.1	41.7	66	72.8
Cc1cc(SCc2sc(-c3ccc(C(F)(F)F)c(F)c3)nc2C)ccc1OCC(=O)O + O=C(O)C(=O)Nc1sc2c(c1C(=O)O)CCNC2 [TCS401] (first compound 10 µM, partner dose 8.33333 µM)	87.9	113	100	94.1	113	91.3	110	103	83.6	90.7	75.8	101	118	100	89.7	113	104	102	78.7	89.2
Cc1cc(SCc2sc(-c3ccc(C(F)(F)F)c(F)c3)nc2C)ccc1OCC(=O)O + COc1cc(N2CCC(N3CCN(C)CC3)CC2)ccc1Nc1ncc(Cl)c(Nc2ccccc2S(=O)(=O)C(C)C)n1 [NVP-TAE684] (first compound 10 µM, partner dose 0.4 µM)	98	97.7	102	113	81	90.8	87.6	71.8	90.8	85.6	110	75.3	96.9	71.5	83.2	113	86.7	67.2	75.6	78.5
COC(=O)c1sccc1S(=O)(=O)Nc1ccc(Nc2ccccc2)cc1OC + O=C(Oc1ccc([N+](=O)[O-])cc1)N1CCC(C(O)(c2ccc3c(c2)OCO3)c2ccc3c(c2)OCO3)CC1 [JZL184] (first compound 5 µM, partner dose 5 µM)	101	91.4	102	113	102	103	89.4	75.4	85.1	105	90.1	100	64.9	78.3	89.8	101	86.2	88.2	101	81.9
Cc1cc(SCc2sc(-c3ccc(C(F)(F)F)c(F)c3)nc2C)ccc1OCC(=O)O + Cn1cc(/C=C2\C(=O)Nc3cccnc32)c2ccccc21 [GW441756] (first compound 10 µM, partner dose 2 µM)	82.8	74.4	92.3	69	54.9	89.1	86.7	117	115	90.1	97.9	103	91	59.7	80.5	78.6	94.8	105	65.2	100
COc1cc([C@@H]2c3cc4c(cc3[C@@H](O[C@@H]3O[C@@H]5CO[C@@H](C)O[C@H]5[C@H](O)[C@H]3O)[C@H]3COC(=O)[C@H]23)OCO4)cc(OC)c1O [etoposide] + C[C@]12O[C@H](C[C@]1(O)CO)n1c3ccccc3c3c4c(c5c6ccccc6n2c5c31)CNC4=O [Lestaurtinib] (first compound 0.1 µM, partner dose 0.02 µM)	103	72.5	99.8	78.1	156	87.9	82	65.5	88	106	63.9	91.4	75.3	47.8	85	53.7	71	70	78.3	77.9
CCCCCCCCCCCCCCCCCCOP(=O)([O-])OC1CC[N+](C)(C)CC1 [Perifosine] + C[C@]12O[C@H](C[C@]1(O)CO)n1c3ccccc3c3c4c(c5c6ccccc6n2c5c31)CNC4=O [Lestaurtinib] (first compound 2 µM, partner dose 0.02 µM)	80.5	70.1	93.9	62	104	81.4	93.4	70	35.1	94.6	64.5	92.7	71.3	64.7	101	84	79	83.2	88.3	78.4
O=C(Oc1ccc([N+](=O)[O-])cc1)N1CCC(C(O)(c2ccc3c(c2)OCO3)c2ccc3c(c2)OCO3)CC1 + O=c1cc(-c2cccc3c2Sc2ccccc2S3)oc(N2CCOCC2)c1 [KU55933] (first compound 5 µM, partner dose 5 µM)	74.8	84.5	91.3	113	104	81.1	85.2	84.3	70	101	66	85.5	77.5	88.9	85.6	70.2	95.8	77.7	94.3	55.6
CC(=O)O[C@@]12CO[C@@H]1C[C@H](O)[C@@]1(C)C(=O)[C@H](O)C3=C(C)[C@@H](OC(=O)[C@H](O)[C@@H](NC(=O)OC(C)(C)C)c4ccccc4)C[C@@](O)([C@@H](OC(=O)c4ccccc4)[C@H]21)C3(C)C [Docetaxel] + N.N.[Cl][Pt][Cl] [cisplatin] (first compound 0.0005 µM, partner dose 8 µM)	14.2	47.4	31.5	64.6	47.2	34.7	51.7	32.5	13.7	30.9	25.4	22.8	49.2	42.5	64.9	45.2	45.6	39.2	34.3	45.2
Nc1nc(F)nc2c1ncn2[C@@H]1O[C@H](CO)[C@@H](O)[C@@H]1O [fludarabine] + C[As](C)SC[C@H](NC(=O)CC[C@H](N)C(=O)O)C(=O)NCC(=O)O [Darinaparsin] (first compound 1 µM, partner dose 2 µM)	74.8	73.4	67	83.9	53.2	80.6	98.2	80.3	62.4	67.1	2.62	1.78	14.3	24	30	52.3	67.3	63.5	101	16.9
CCN(CC)CCCCNc1ncc2cc(-c3cc(OC)cc(OC)c3)c(NC(=O)NC(C)(C)C)nc2n1 + O=C(Oc1ccc([N+](=O)[O-])cc1)N1CCC(C(O)(c2ccc3c(c2)OCO3)c2ccc3c(c2)OCO3)CC1 [JZL184] (first compound 0.5 µM, partner dose 5 µM)	90.9	106	106	121	83	104	104	86.2	106	116	103	86.4	86.6	74.1	107	91.6	106	94.7	79.3	78.1

Source: the supplement of paper PMC4604168 (melanoma cell lines)
